# Experimental data taken from the supplement of paper PMC8728848.
# The list shows a part of the results.
# B1: BTL (Bryothamnion triquetrum) (protein)
# chain: ADPICGSSGYSCTTPAILTPKSPGSFPSGYSKVIVTGVGGSYSVYIHRPDGFKVYKASEGGCASFGSYSGGGNSEVGKYGSGGTVVAVACK
# Key:
# Assay in all cases: glycan array binding signal (z-score within array); higher = stronger binding
# Conditions in all cases: glycan notation: IUPAC condensed, linker removed
# Fuc(a1-2)Gal = target: Fuc(a1-2)Gal
# Outline: (§1)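 The binding signal is a Z-score computed within each array. Data were drawn from 3228 arrays in the Consortium for Functional Glycomics database, restricted to those with a known protein sequence. Scores were averaged over arrays of the same protein sequence at different concentrations or buffers, and over linkers, and negative values can be taken as non-binding.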
# Fuc(a1-2)Gal(b1-3)GalNAc = target: Fuc(a1-2)Gal(b1-3)GalNAc
# Outline: as §1
# [1] = target: Fuc(a1-2)Gal(b1-3)GalNAc(a1-3)[Fuc(a1-2)]Gal(b1-4)Glc
# Outline: as §1
# [2] = target: Fuc(a1-2)Gal(b1-3)GalNAc(a1-3)[Fuc(a1-2)]Gal(b1-4)GlcNAc
# Outline: as §1
# [3] = target: Fuc(a1-2)Gal(b1-3)GalNAc(b1-3)Gal
# Outline: as §1
# [4] = target: Fuc(a1-2)Gal(b1-3)GalNAc(b1-3)Gal(a1-4)Gal(b1-4)Glc
# Outline: as §1
# [5] = target: Fuc(a1-2)Gal(b1-3)GalNAc(b1-4)[Neu5Ac(a2-3)]Gal(b1-4)Glc
# Outline: as §1
# Fuc(a1-2)Gal(b1-3)GlcNAc = target: Fuc(a1-2)Gal(b1-3)GlcNAc
# Outline: as §1
# [6] = target: Fuc(a1-2)Gal(b1-3)GlcNAc(b1-2)Man(a1-3)[Fuc(a1-2)Gal(b1-3)GlcNAc(b1-2)Man(a1-6)]Man(b1-4)GlcNAc(b1-4)GlcNAc
# Outline: as §1
# [7] = target: Fuc(a1-2)Gal(b1-3)GlcNAc(b1-2)Man(a1-3)[Fuc(a1-2)Gal(b1-3)GlcNAc(b1-2)Man(a1-6)]Man(b1-4)GlcNAc(b1-4)[Fuc(a1-6)]GlcNAc
# Outline: as §1
# [8] = target: Fuc(a1-2)Gal(b1-3)GlcNAc(b1-3)Gal(b1-4)Glc
# Outline: as §1
# [9] = target: Fuc(a1-2)Gal(b1-3)GlcNAc(b1-3)GalNAc
# Outline: as §1
# [10] = target: Fuc(a1-2)Gal(b1-3)GlcNAc(b1-3)[Fuc(a1-2)Gal(b1-3)GlcNAc(b1-6)]GalNAc
# Outline: as §1
# [11] = target: Fuc(a1-2)Gal(b1-3)GlcNAc(b1-3)[Gal(b1-4)GlcNAc(b1-6)]Gal(b1-4)Glc
# Outline: as §1
# [12] = target: Fuc(a1-2)Gal(b1-3)GlcNAc(b1-3)[Neu5Ac(a2-6)Gal(b1-4)GlcNAc(b1-6)]Gal(b1-4)Glc
# Outline: as §1
# [13] = target: Fuc(a1-2)Gal(b1-3)GlcNAc6S
# Outline: as §1
# [14] = target: Fuc(a1-2)Gal(b1-3)[Fuc(a1-4)]GlcNAc
# Outline: as §1
# [15] = target: Fuc(a1-2)Gal(b1-3)[Fuc(a1-4)]GlcNAc(b1-2)Man(a1-3)[Fuc(a1-2)Gal(b1-3)[Fuc(a1-4)]GlcNAc(b1-2)Man(a1-3)]Man(b1-4)GlcNAc(b1-4)GlcNAc
# Outline: as §1
# [16] = target: Fuc(a1-2)Gal(b1-3)[Fuc(a1-4)]GlcNAc(b1-2)Man(a1-3)[Fuc(a1-2)Gal(b1-3)[Fuc(a1-4)]GlcNAc(b1-2)Man(a1-6)]Man(b1-4)GlcNAc(b1-4)[Fuc(a1-6)]GlcNAc(b1-4)[Fuc(a1-6)]GlcNAc
# Outline: as §1
# [17] = target: Fuc(a1-2)Gal(b1-3)[Fuc(a1-4)]GlcNAc(b1-3)[Fuc(a1-3)[Gal(b1-4)]GlcNAc(b1-6)]Gal(b1-4)Glc
# Outline: as §1
# [18] = target: Fuc(a1-2)Gal(b1-3)[Fuc(a1-4)]GlcNAc(b1-3)[Gal(b1-4)GlcNAc(b1-6)]Gal(b1-4)Glc
# Outline: as §1
# [19] = target: Fuc(a1-2)Gal(b1-4)Fuc(a1-3)]GlcNAc(b1-2)Man(a1-3)[Fuc(a1-2)Gal(b1-4)[Fuc(a1-3)]GlcNAc(b1-2)Man(a1-6)]Man(b1-4)GlcNAc(b1-4)GlcNAc
# Outline: as §1
# Fuc(a1-2)Gal(b1-4)Glc = target: Fuc(a1-2)Gal(b1-4)Glc
# Outline: as §1
# Fuc(a1-2)Gal(b1-4)Glc6S = target: Fuc(a1-2)Gal(b1-4)Glc6S
# Outline: as §1
# Fuc(a1-2)Gal(b1-4)GlcNAc = target: Fuc(a1-2)Gal(b1-4)GlcNAc
# Outline: as §1
# [20] = target: Fuc(a1-2)Gal(b1-4)GlcNAc(b1-2)Man
# Outline: as §1
# [21] = target: Fuc(a1-2)Gal(b1-4)GlcNAc(b1-2)Man(a1-3)[Fuc(a1-2)Gal(b1-4)GlcNAc(b1-2)Man(a1-6)]Man(b1-4)GlcNAc(b1-4)GlcNAc
# Outline: as §1
# [22] = target: Fuc(a1-2)Gal(b1-4)GlcNAc(b1-2)Man(a1-3)[Fuc(a1-2)Gal(b1-4)GlcNAc(b1-2)Man(a1-6)]Man(b1-4)GlcNAc(b1-4)[Fuc(a1-6)]GlcNAc
# Outline: as §1
# [23] = target: Fuc(a1-2)Gal(b1-4)GlcNAc(b1-2)[Fuc(a1-2)Gal(b1-4)GlcNAc(b1-4)]Man(a1-3)[Fuc(a1-2)Gal(b1-4)GlcNAc(b1-2)Man(a1-6)]Man(b1-4)GlcNAc(b1-4)GlcNAc
# Outline: as §1
# [24] = target: Fuc(a1-2)Gal(b1-4)GlcNAc(b1-3)Gal(b1-4)GlcNAc
# Outline: as §1
# [25] = target: Fuc(a1-2)Gal(b1-4)GlcNAc(b1-3)Gal(b1-4)GlcNAc(b1-2)Man(a1-3)[Fuc(a1-2)Gal(b1-4)GlcNAc(b1-3)Gal(b1-4)GlcNAc(b1-2)Man(a1-6)]Man(b1-4)GlcNAc(b1-4)GlcNAc
# Outline: as §1
# [26] = target: Fuc(a1-2)Gal(b1-4)GlcNAc(b1-3)Gal(b1-4)GlcNAc(b1-3)Gal(b1-4)GlcNAc
# Outline: as §1
# [27] = target: Fuc(a1-2)Gal(b1-4)GlcNAc(b1-3)GalNAc
# Outline: as §1
# [28] = target: Fuc(a1-2)Gal(b1-4)GlcNAc(b1-3)[Fuc(a1-2)Gal(b1-4)GlcNAc(b1-6)]GalNAc
# Outline: as §1
# [29] = target: Fuc(a1-2)Gal(b1-4)GlcNAc(b1-3)[Fuc(a1-3)[Gal(b1-4)]GlcNAc(b1-6)]Gal(b1-4)Glc
# Outline: as §1
# [30] = target: Fuc(a1-2)Gal(b1-4)GlcNAc(b1-6)GalNAc
# Outline: as §1
# [31] = target: Fuc(a1-2)Gal(b1-4)GlcNAc6S
# Outline: as §1
# [32] = target: Fuc(a1-2)Gal(b1-4)[Fuc(a1-3)]GlcNAc
# Outline: as §1
# [33] = target: Fuc(a1-2)Gal(b1-4)[Fuc(a1-3)]GlcNAc(b1-2)Man(a1-3)[Fuc(a1-2)Gal(b1-4)[Fuc(a1-3)]GlcNAc(b1-2)Man(a1-6)]Man(b1-4)GlcNAc(b1-4)[Fuc(a1-6)]GlcNAc
# Outline: as §1
# [34] = target: Fuc(a1-2)Gal(b1-4)[Fuc(a1-3)]GlcNAc(b1-2)[Fuc(a1-2)Gal(b1-4)[Fuc(a1-3)]GlcNAc(b1-4)]Man(a1-3)[Fuc(a1-2)Gal(b1-4)[Fuc(a1-3)]GlcNAc(b1-2)Man(a1-6)]Man(b1-4)GlcNAc(b1-4)GlcNAc
# Outline: as §1
# [35] = target: Fuc(a1-2)Gal(b1-4)[Fuc(a1-3)]GlcNAc(b1-3)Gal(b1-4)[Fuc(a1-3)]GlcNAc
# Outline: as §1
# [36] = target: Fuc(a1-2)Gal(b1-4)[Fuc(a1-3)]GlcNAc(b1-3)Gal(b1-4)[Fuc(a1-3)]GlcNAc(b1-3)Gal(b1-4)[Fuc(a1-3)]GlcNAc
# Outline: as §1
# [37] = target: Fuc(a1-2)Gal(b1-4)[Fuc(a1-3)]GlcNAc(b1-3)GalNAc
# Outline: as §1
# [38] = target: Fuc(a1-2)Gal(b1-4)[Fuc(a1-3)]GlcNAc(b1-3)[Neu5Ac(a2-6)Gal(b1-4)GlcNAc(b1-6)]Gal(b1-4)Glc
# Outline: as §1
# [39] = target: Fuc(a1-2)Gal3S(b1-4)GlcNAc
# Outline: as §1
binder,measurement,setting,value
B1,glycan array binding signal (z-score),Fuc(a1-2)Gal,-0.28
same,glycan array binding signal (z-score),Fuc(a1-2)Gal(b1-3)GalNAc,-0.254
same,glycan array binding signal (z-score),[1],-0.213
same,glycan array binding signal (z-score),[2],-0.275
same,glycan array binding signal (z-score),[3],-0.248
same,glycan array binding signal (z-score),[4],-0.262
same,glycan array binding signal (z-score),[5],-0.198
same,glycan array binding signal (z-score),Fuc(a1-2)Gal(b1-3)GlcNAc,-0.254
same,glycan array binding signal (z-score),[6],-0.058
same,glycan array binding signal (z-score),[7],2.75
same,glycan array binding signal (z-score),[8],-0.25
same,glycan array binding signal (z-score),[9],-0.189
same,glycan array binding signal (z-score),[10],-0.142
same,glycan array binding signal (z-score),[11],-0.245
same,glycan array binding signal (z-score),[12],-0.264
same,glycan array binding signal (z-score),[13],-0.245
same,glycan array binding signal (z-score),[14],-0.245
same,glycan array binding signal (z-score),[15],-0.149
same,glycan array binding signal (z-score),[16],1.51
same,glycan array binding signal (z-score),[17],-0.244
same,glycan array binding signal (z-score),[18],-0.232
same,glycan array binding signal (z-score),[19],-0.072
same,glycan array binding signal (z-score),Fuc(a1-2)Gal(b1-4)Glc,-0.245
same,glycan array binding signal (z-score),Fuc(a1-2)Gal(b1-4)Glc6S,-0.29
same,glycan array binding signal (z-score),Fuc(a1-2)Gal(b1-4)GlcNAc,-0.213
same,glycan array binding signal (z-score),[20],-0.236
same,glycan array binding signal (z-score),[21],-0.133
same,glycan array binding signal (z-score),[22],1.79
same,glycan array binding signal (z-score),[23],-0.263
same,glycan array binding signal (z-score),[24],-0.285
same,glycan array binding signal (z-score),[25],-0.109
same,glycan array binding signal (z-score),[26],-0.184
same,glycan array binding signal (z-score),[27],-0.164
same,glycan array binding signal (z-score),[28],-0.148
same,glycan array binding signal (z-score),[29],-0.269
same,glycan array binding signal (z-score),[30],-0.024
same,glycan array binding signal (z-score),[31],-0.258
same,glycan array binding signal (z-score),[32],-0.249
same,glycan array binding signal (z-score),[33],3.9
same,glycan array binding signal (z-score),[34],-0.055
same,glycan array binding signal (z-score),[35],-0.23
same,glycan array binding signal (z-score),[36],-0.264
same,glycan array binding signal (z-score),[37],-0.197
same,glycan array binding signal (z-score),[38],-0.219
same,glycan array binding signal (z-score),[39],-0.256
